Out of some 150,000 compounds screened, about 540 (0.36%) showed an effect of 50% or more. The list shows a part of the results.
System: Plasmodium falciparum
Assay: Primary screen in NF54 nanoGlo assay, in single point, at 2uM, 72h; a lower Z score goes with more inhibition
Type: functional, Erythrocyte
Settings: timepoint 72 hour

| SMILES | % Inhibition | Z score |
| --- | --- | --- |
| O=C(O)[C@@H]1CN(C(=O)c2ccc(Cl)o2)C[C@@H]1c1ccccc1 | -13% | 1.76 |
| COC(=O)N1CCCC[C@H]1C(=O)N1CCC2(CC1)c1nc[nH]c1CCN2C | -17% | 2.2 |
| Fc1ccc(C2=CCN(c3ccc4nnc(C(F)(F)F)n4n3)C2)cc1 | 5% | -0.54 |
| O=C(c1ncccc1O)N1CCC(c2nccn2Cc2ccccc2)CC1 | -3% | 0.48 |
| COc1ccc(NC(=O)c2cc(C)nc3c2c(C)nn3-c2cccc(Cl)c2C)cc1 | -1% | 0.14 |
| Cc1c(C(=O)NC2(C#N)CC2)nnn1-c1ccc(Cl)cc1F | 3% | -0.48 |
| Cn1cc(S(=O)(=O)N2CCC(CCC(=O)NC[C@H]3CCCO3)CC2)cn1 | 5% | -0.87 |
| Cc1cccc(NS(=O)(=O)[C@H]2CCS(=O)(=O)C2)c1 | -4% | 0.54 |
| COc1ccccc1OCC(=O)Nc1cc2c(cc1C(=O)O)OCCCO2 | 14% | -2.29 |
| O=C(CCN1CCCCC1)c1cc2ccccc2o1 | -7% | 0.95 |
| CCOC(=O)[C@H]1CCCN(C(=O)NCc2ccc(NC(C)=O)cc2)C1 | -4% | 0.5 |
| O=C(Nc1ccc(-c2ccccn2)cn1)c1csc(Cc2ccc(F)cc2)n1 | -7% | 0.97 |
| CCN(C[C@H]1COc2ccccc2O1)C(=O)Cn1cnc(C#N)n1 | -10% | 1.63 |
| Cc1nc([C@H](NC(=O)c2cncc(O)c2)c2ccc(Cl)cc2)no1 | -4% | 0.54 |
| COc1cccc(CC2=NO[C@H](C(=O)NCc3ccon3)C2)c1 | 6% | -0.78 |
| COC(=O)C1CCCCC1NC(=O)c1ccncc1F (stereo not drawn) | -10% | 1.02 |
| O=C(NCCn1ccccc1=O)N[C@H]1CCCC12CCCCC2 | -6% | 0.72 |
| CN1CCc2cc(-c3ncccn3)ccc21 | 2% | -0.3 |
| CN1CC[C@@]2(CCC1=O)CN(Cc1cccc(O)c1)CCN2C | -17% | 1.68 |
| CC(C)(CNC(=O)c1ccncc1)CNC(=O)c1ccncc1 | -3% | 0.61 |
| O=C(NCCc1ccc[nH]1)[C@H]1CC[C@H](Nc2ncccn2)CC1 | -2% | 0.3 |

| SMILES | % Inhibition | Z score |
| --- | --- | --- |
| CCc1ccc(-c2nn(CC)c(=O)c3c2CCCC3)cc1S(=O)(=O)N1CCCC[C@@H]1C | -3% | 0.39 |
| COc1ccc(CNC(=O)c2cc(-c3sc(-c4cccc(C)c4)nc3C)n[nH]2)cc1 | -7% | 0.93 |
| O=C(c1nccc2ccccc12)N1CC(n2nccn2)C1 | 6% | -0.74 |
| Cc1noc(C2CN(C(=O)c3nc4ccccc4s3)C2)n1 | -4% | 0.66 |
| Cc1nc(NC(=O)c2ccccc2NC(=O)c2ccco2)sc1C | -12% | 2.36 |
| O=C(NC[C@H]1CCCN1c1ccccn1)c1cccc(Cl)c1 | -13% | 2.45 |
| CN(C)C(=O)[C@]12CN(C(=O)c3ccccc3)C[C@H]1CN(S(=O)(=O)c1ccc(F)cc1)C2 | -5% | 0.63 |
| C[C@H](NC(=O)N1CCCC12CCN(C)CC2)c1cccc(O)c1 | -13% | 2.41 |
| O=C(C1CC1c1cccnc1)N(CCN1CCCC1)c1ccccc1 (stereo not drawn) | 2% | -0.18 |
| OCC1(CCCc2ccccc2)CCN(C2CCOCC2)CC1 | -10% | 1.9 |
| COCC(C)(C)C(=O)Nc1ccn(CC(F)F)n1 | 7% | -0.9 |
| Clc1ccc(COc2cccc(CNCc3ccco3)c2)c(Cl)c1 | -29% | 3.45 |
| Cc1cccc(CC(=O)Nc2cc(C)nn2-c2ccc(C)nn2)c1 | -11% | 0.9 |
| O=C(c1cc2ccccn2c1)N1CCOC[C@@]12CCOC2 | 13% | -1.19 |
| CC(CCC1CCCO1)NC(=O)c1ccc(OCC(F)F)nc1 (stereo not drawn) | -7% | 0.87 |
| Cc1noc(C)c1S(=O)(=O)NC1(C(=O)Nc2ccsc2)CCCC1 | -8% | 1.08 |
| C[C@@]1(C(=O)NCCCn2cccn2)CCCO1 | -7% | 0.85 |
| O=S(=O)(c1ccccc1Br)N1C2CCC1CC(=C1CC1)C2 | 8% | -1.03 |
| CCN1CC[C@H]2OCCN(Cc3cnc(N(C)C)c4ccccc34)[C@H]2C1 | -6% | 1.03 |
| CCc1nc(CNS(=O)(=O)CC2CCCC2)cs1 | -6% | 1.28 |
| Cc1cccc(C(=O)N(Cc2cccs2)c2cccc(Cl)c2)c1 | 15% | -1.75 |

| SMILES | % Inhibition | Z score |
| --- | --- | --- |
| CCN1CC(=O)N([C@H]2CN(C)Cc3ccccc32)C1=O | -14% | 1.44 |
| Cn1nccc1C(=O)N1CCC[C@H](c2nc(-c3ccccc3)no2)CCNC(=O)CC1 | 2% | -0.46 |
| O=C(CN1CCC(N2CC(=O)N(CC(F)(F)F)C2=O)CC1)Nc1nccs1 | -4% | 0.46 |
| c1ccc(-c2ncn(Cc3noc([C@@H]4CCCO4)n3)c2-c2ccsc2)cc1 | -19% | 2.3 |
| Cc1ccc(NS(=O)(=O)c2ccc(-c3cc(C(F)(F)F)n[nH]3)s2)c(Cl)c1 | -3% | 0.65 |
| CCOC[C@@H]1CC(F)(F)CN1C1CN(C(=O)c2cc(C)n[nH]2)C1 | -18% | 2.06 |
| Cc1ncsc1C(=O)N[C@H]1CC(=O)N(CC(C)(C)C)C1 | 3% | -0.47 |
| O=C(Nc1cccc2ccccc12)c1ccc2nsnc2c1 | -8% | 1.58 |
| Cc1nnc2ccc(-c3cccc(NS(=O)(=O)c4ccc5c(c4)OCCO5)c3)nn12 | 6% | -0.83 |
| Cc1cc(C)c(C(=O)N2CCC[C@H](C(=O)NCc3cccnc3)C2)[nH]1 | -5% | 0.63 |
| COc1ccc(OCC(=O)N2CCC[C@H]2c2ccc3c(c2)OCCCO3)cc1 | 2% | -0.3 |
| CCc1nc(C(=O)Nc2ccccc2N(C)C)c[nH]1 | 21% | -2.32 |
| CCN(Cc1ccccn1)C(=O)NCc1ccc(C2CC2)cc1F | -7% | 0.94 |
| O=C(NC1CCC(Oc2cnccn2)CC1)c1ccon1 (stereo not drawn) | -7% | 0.66 |
| CCC(CC)N1CCN(S(C)(=O)=O)CC1 | -9% | 0.78 |
| Cc1nonc1CN[C@@H](Cc1ccccc1)C1CCCCC1 | 13% | -2.47 |
| COc1ccc(OC(C)CNC(=O)C2CCCC(F)(F)C2)cc1 (stereo not drawn) | -10% | 1.12 |
| CN(C)S(=O)(=O)NCCn1nc(-c2ccccn2)n(C)c1=O | -11% | 2.04 |
| CCOC(=O)C1CCN(C(=O)c2cnc(-c3cccc(C)c3)nc2N(C)c2ccccc2)CC1 | 3% | -0.48 |
| COC1(C)CC(N(C)C(=O)[C@@H]2Cc3cncn3C(=O)N2)C1(C)C (stereo partly drawn) | -3% | 0.52 |
| N#Cc1ccc(NC(=O)c2cccc(-c3nc(-c4ccccc4)no3)c2)cc1 | -5% | 0.86 |

| SMILES | % Inhibition | Z score |
| --- | --- | --- |
| Cc1cn([C@@H](C)c2ccccc2)nc1NC(=O)NCC1CCS(=O)(=O)CC1 | -5% | 0.72 |
| O=C1NCC2C1CCCN2C(=O)Nc1cccc(C#Cc2ccccc2)c1 (stereo not drawn) | -11% | 1.42 |
| O=C(c1ccc(F)cc1Cl)N1CC(Nc2cnccn2)C1 | -8% | 0.95 |
| Cc1ccccc1C(=O)N[C@@H]1CCCC[C@H]1NC(=O)C1CCN(C(=O)c2cc(C(F)(F)F)cc(C(F)(F)F)c2)CC1 | -5% | 0.63 |
| Cc1nc(N2CCCC2)nc(C)c1NC(=O)c1cccc(F)c1 | -5% | 0.84 |
| CCCOc1ccccc1[C@H]1CC(=O)Nc2c1c(C)nn2-c1nncc(-c2cccc(OC)c2)n1 | 15% | -2.83 |
| CC(C)(C)OC(=O)c1ccc(CN)cc1 | 1% | -0.14 |
| CC(C)n1cc(C(C)(C)NC(=O)Cn2ncn(C)c2=O)nn1 | -19% | 2.56 |
| Cc1ccc(F)cc1NC(=O)N1C[C@H]2CCN(C)[C@H]2C1 | -6% | 0.74 |
| COc1ccc(CNc2cn[nH]c(=O)n2)cc1 | -14% | 1.84 |
| C[C@H]1c2cccn2CCN1CCC(=O)NC(=O)NC1CCCC1 | -4% | 0.48 |
| CC(C)(C)C(=O)N1CCc2c(c(C(=O)O)nn2Cc2ccc(F)cc2)C1 | -8% | 1.63 |
| Cc1n[nH]c([C@@H]2CCN(C(=O)c3cnc[nH]3)CCN2C(=O)Cc2ccccc2)n1 | 0% | 0.08 |
| CCOc1ccc(F)c(NC(=O)N2CC3(CC=CC3)[C@@H]2C(C)C)c1F | -8% | 1.52 |
| Cc1cncnc1-c1noc(-c2ccco2)n1 | -2% | 0.26 |
| c1coc(CN2CC[C@H](c3ccnc(-c4ccc5c(c4)OCO5)c3)C2)c1 | -17% | 1.69 |
| CC(=O)N[C@H]1CN(c2ncccc2C(N)=O)C[C@@H]1c1ccc(C)cc1 | -7% | 1.34 |
| CCCS(=O)(=O)N1CC[C@H]2C(=O)N(Cc3ccc(F)cc3)CCN2CC1 | -18% | 2.47 |
| O=C(Cc1ccsc1)N1CCC[C@H](c2[nH]ncc2-c2ccccc2)C1 | -6% | 1.22 |
| CN(C(=O)[C@@H]1CCCCN1S(=O)(=O)c1ccc(Cl)s1)c1ccccc1 | -13% | 1.84 |
| CC(C)CCn1ccc(NC(=O)N2CCC(c3ccc4cccnc4n3)CC2)n1 | 2% | -0.2 |
